# Reference: PubChem BioAssay (NCATS)
# “And” between values parts separate entries of the source, which are not always exact repeats. Identical values can stand only once. Inconclusive means that the source gave no clear call. Such entries were picked first, then a sample of the others. Potencies beside an inconclusive call are fits to weak or partial responses and may not hold up. The source made the active and inactive calls. Calls come from the whole dose curve; as a rule, active = well fitted curve in the direction sought with a large enough effect; inconclusive = small, poorly fitted or top-dose-only effect, or another doubt; inactive = no such curve, though single readings can be large; an effect the other way counts as inactive or inconclusive.
# Assays:
# [1] = Viability qHTS for spleen associated tyrosine kinase inhibitor (SYKi) naive MV4-11 cells (AID 1963823); settings: MV4-11 AML viability, CellTiter-Glo luminescence, 72 h; viability (% of control): at 45 µM (top of the series); note: nearly all actives have a fitted effect of over 40% in size
# In short: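 Luminescence from CellTiter-Glo, developed 10 min at room temperature, gave viability of MV4-11 cells never exposed to SYK inhibitor. Cells (500/well) had been incubated with compounds for 72 hr under standard culture conditions.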
# [2] = Quantitative highthroughput screen to assess conditional lethalithy of NOMO1 cells grown in Human Plasma-Like Medium with dialyzed fetal bovine serum (HPLM+ds) (AID 1963878); settings: NOMO1 AML cells in HPLM+ds, CellTiter-Glo viability, 48 h; viability: at 45.8 µM (top of the series); note: nearly all actives have a fitted effect of over 35% in size;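 for Viability: 100% = DMSO wells and 0% = empty wells on each plate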
# In short: (§1)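 Each medium arm—HPLM with 10% dialyzed FBS, or RPMI1640 with 5 mM glucose and 10% untreated or dialyzed FBS—was screened against an 11-point, 3-fold compound titration for 48 h at 37 °C, with CellTiter-Glo luminescence as endpoint.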
# [3] = Quantitative highthroughput screen to assess conditional lethalithy of P12 Ichikawa cells grown in Human Plasma-Like Medium with dialyzed fetal bovine serum (HPLM+ds) (AID 1963879); settings: Potency: viability; note: nearly all actives have a fitted effect of over 35% in size
# In short: as §1
# [4] = Quantitative highthroughput screen to assess conditional lethalithy of P12 Ichikawa cells grown in RPMI1640 with dialyzed fetal bovine serum (RPMI+ds) (AID 1963880); settings: Potency: P12-Ichikawa viability; note: nearly all actives have a fitted effect of over 35% in size;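 for Viability: 100% = DMSO wells and 0% = empty wells on each plate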
# In short: as §1
# [5] = Quantitative highthroughput screen to assess conditional lethalithy of P12 Ichikawa cells grown in RPMI1640 with untreated serum (RPMI+s) (AID 1963881); settings: Potency: viability; note: nearly all actives have a fitted effect of over 35% in size;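 for Viability: 100% = DMSO wells and 0% = empty wells without cells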
# In short: as §1
# [6] = Quantitative highthroughput screen to assess conditional lethalithy of SEM cells grown in Human Plasma-Like Medium with dialyzed fetal bovine serum (HPLM+ds) (AID 1963882); note: nearly all actives have a fitted effect of over 35% in size
# In short: as §1
# [7] = Quantitative highthroughput screen to assess conditional lethalithy of SEM cells grown in RPMI1640 with unreated serum (RPMI+s) (AID 1963883); settings: SEM B-ALL cells, CellTiter-Glo viability, 48 h; viability: at 45.8 µM (top of the series); note: nearly all actives have a fitted effect of over 35% in size;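 for Viability: 100% = DMSO wells and 0% = empty wells without cells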
# In short: as §1
# [8] = Quantitative highthroughput screen to assess conditional lethalithy of SEM cells grown in RPMI1640 with dialyzed fetal bovine serum (RPMI+ds) (AID 1963884); settings: SEM B-ALL cells, RPMI+dialyzed FBS, CellTiter-Glo viability, 48 h; viability: at 45.8 µM (top of the series); note: nearly all actives have a fitted effect of over 35% in size;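 for Viability: 100% = DMSO control wells and 0% = empty wells without cells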
# In short: as §1
# [9] = Cellular viability qHTS for adrenocortical cancer (ACC) cell line SW-13 (AID 1963989); settings: SW-13 ACC cells viability, CellTiter-Glo, 48 h; activity (max response): stronger effect = lower value; note: nearly all actives have a fitted effect of over 65% in size;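 for activity (max response): cells grown in serum-free medium with ITS supplement; % is set by controls: 0 for no effect and ±100 for the full control effect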
# In short: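 Here, serum-free SW-13 cultures were dosed up to 46 uM. Following 48 h, ATP-dependent luminescence (CellTiter-Glo) reported viable cells, and logistic modeling produced IC50 values.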
# [10] = Cellular viability qHTS for adrenocortical cancer (ACC) cell line NCI-H295R (AID 1963990); settings: CellTiter-Glo ATP luminescence, 48 h; activity change, negative = viability loss: at 46.1 µM (top of the series); note: nearly all actives have a fitted effect of over 60% in size;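 for activity change, negative = viability loss: 0% = DMSO only wells and -100% = full killing with cytotoxic reference compound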
# In short: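 Viability of NCI-H295R after 48 h of treatment (final up to 46 uM) measured through cellular ATP luminescence.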
# Potency is the fitted concentration of half-maximal effect; tags give direction and shape of the fitted curve.
SMILES,Potency [1],Potency [2],Potency [3],Potency [4],Potency [5],Potency [6],Potency [7],Potency [8],Potency [9],Potency [10],activity (max response) [9]
CCc1cncnc1N1CCN(Cc2nc3ccc(C(F)(F)F)cc3[nH]2)CC1,"inconclusive: 2.91 µM [cytotoxic, full curve]",inactive,"inconclusive: 23.5 µM [cytotoxic, single point]","inconclusive: 29.6 µM [cytotoxic, single point]","inconclusive: 29.6 µM [cytotoxic, partial curve]","inconclusive: 16.6 µM [cytotoxic, partial curve]","inconclusive: 16.6 µM [cytotoxic, partial curve]","inconclusive: 16.6 µM [cytotoxic, partial curve]","inconclusive: 12.6 µM [cytotoxic, partial curve]",active: 17.8 µM,–
COc1ccc(OC)c(-c2nnc3ccc(-c4ccc(OC)c(O[C@@H]5CCOC5)c4)nn23)c1,active: 2.63 µM,"inconclusive: 37.2 µM [cytotoxic, single point]",–,"inconclusive: 20.9 µM [cytotoxic, partial curve, poor fit]","inconclusive: 23.5 µM [cytotoxic, partial curve]","inconclusive: 23.5 µM [cytotoxic, single point]","inconclusive: 23.5 µM [cytotoxic, single point]",inactive,–,–,–
c1cc(N[C@@H]2CCNC2)nc(-c2cnc3ccc(-c4cn[nH]c4)cn23)c1,"inconclusive: 0.0092 µM [cytotoxic, full curve]","inconclusive: 18.7 µM [cytotoxic, partial curve, poor fit]","inconclusive: 18.7 µM [cytotoxic, partial curve, poor fit]","inconclusive: 20.9 µM [cytotoxic, partial curve]","inconclusive: 16.6 µM [cytotoxic, partial curve]","inconclusive: 0.209 µM [cytotoxic, full curve]","inconclusive: 7.43 µM [cytotoxic, partial curve]","inconclusive: 0.469 µM [cytotoxic, full curve]",active: 3.98 µM,–,–
O=C(O)C1CCCN(CCC=C(c2ccccc2)c2ccccc2)C1 (stereo unspecified),inactive,inactive,inactive,–,inactive,–,inactive,inactive,–,inactive,–
COCCCOc1cc(C[C@@H](C[C@H](N)[C@@H](O)C[C@H](C(=O)NCC(C)(C)C(N)=O)C(C)C)C(C)C)ccc1OC,"inconclusive: 133 nM [cytotoxic, full curve, poor fit] and inactive",inactive,inactive,inactive,inactive,–,–,inactive,"inconclusive: 29.1 µM [cytotoxic, single point]","inconclusive: 29.1 µM [cytotoxic, single point]",inactive: 6.05%
CCCCOc1c(C(=O)c2c(F)cc(C)cc2F)cnc2n[nH]cc12,active: 651 nM and active: 1.32 µM,inactive,inactive,inactive,inactive,"inconclusive: 14.8 µM [cytotoxic, partial curve]","inconclusive: 13.2 µM [cytotoxic, partial curve]","inconclusive: 16.6 µM [cytotoxic, partial curve]",–,"inconclusive: 17.8 µM [cytotoxic, partial curve]",–
Cc1ccccc1C(C(=O)NC1CCCCC1)N(C(=O)CNc1ccc(C#N)cc1)c1cccc(F)c1 (stereo unspecified),"inconclusive: 7.31 µM [cytotoxic, partial curve, poor fit]",inactive,inactive,"inconclusive: 0.0012 µM [rising, full curve]","inconclusive: 0.0013 µM [rising, full curve, poor fit]",inactive,–,–,–,–,–
O=C(c1cc(Cc2n[nH]c(=O)c3ccccc23)ccc1F)N1CCN(C(=O)C2CC2)CC1,"inconclusive: 8.2 µM [cytotoxic, partial curve]","inconclusive: 33.2 µM [cytotoxic, single point]","inconclusive: 33.2 µM [cytotoxic, single point]",active: 20.9 µM,"inconclusive: 20.9 µM [cytotoxic, partial curve]","inconclusive: 7.43 µM [cytotoxic, full curve]",active: 6.62 µM,"inconclusive: 7.43 µM [cytotoxic, full curve]","inconclusive: 31.6 µM [cytotoxic, partial curve, poor fit]",–,–
